# Data: the supplement of paper PMC10369915
# Some of the results follow. Rule as the data show it: active = 3.2 or more and inactive = the rest. The signal is at background level for most entries.
# Molecular target: SHP2 C-SH2 domain E139D
# Experiment: enrichment score (SH2-bound / input frequency) (ratio); bacterial display of known human phosphotyrosine sites (pTyr-Var adds point mutants) read by sequencing; higher = stronger binding; tyrosines were phosphorylated by kinases first
# Conditions: peptide library: Human pTyr
# 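Also: displayed peptides selected on beads carrying the immobilized SH2 domain, with library peptides lacking any tyrosine serving as negative controls.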
row,Binder,enrichment score
1,TMMSVDRYIAVCHPV [OPRK_HUMAN_157],inactive: 1.61
2,EEEISAMYSSVNKPG [PHAG1_HUMAN_317],inactive: 0.68
3,ARTTSQLYDAVPIQS [PDPK1_HUMAN_9],inactive: 0.834
4,KLLCDKAYMASPDLE [PDK2_HUMAN_216_YA],inactive: 1.02
5,SFENNGDYMDMKQAD [PGFRA_HUMAN_731],inactive: 0.776
6,SPAGRSIYNSFYVYC [PARK2_HUMAN_143],inactive: 2.71
7,DENGSKGYAFVHFET [PABP4_HUMAN_140],inactive: 2.97
8,DDQSEAVYEEMKAPI [NYAP2_HUMAN_268_YA],inactive: 0.958
9,KMQDIPIYANVHKTK [ARAP2_HUMAN_77],inactive: 1.16
10,KMLCEQYYLVAPELE [PDK3_HUMAN_212],inactive: 1.38
11,GAARAGVYNLTKSLA [PECR_HUMAN_179],inactive: 0.785
12,DQLNDNEYTKFIPPN [PDP1_HUMAN_381],inactive: 0.624
13,AKPDSPEYKAACKLW [PB1_HUMAN_134_YA],inactive: 1.14
14,KTSNSQKYMSFTDKS [PAK1_HUMAN_142],inactive: 1.6
15,VGEEEHVYSFPNKQK [PAXI_HUMAN_118],inactive: 0.834
16,TLTCMQHYEEVQTSA [PHAG1_HUMAN_105],inactive: 1.37
17,TSGQVEEYDLDADDI [AQP1_HUMAN_253],inactive: 1.73
18,VLQRTLHYECIVLVK [NUDT5_HUMAN_74],inactive: 1.96

# Molecular target: SHP2 C-SH2 domain wild-type
# Experiment: as above
# Conditions: peptide library: Human pTyr
row,Binder,enrichment score
1,TMMSVDRYIAVCHPV [OPRK_HUMAN_157],inactive: 1.44
2,EEEISAMYSSVNKPG [PHAG1_HUMAN_317],inactive: 0.789
3,ARTTSQLYDAVPIQS [PDPK1_HUMAN_9],inactive: 0.702
4,KLLCDKAYMASPDLE [PDK2_HUMAN_216_YA],inactive: 0.921
5,SFENNGDYMDMKQAD [PGFRA_HUMAN_731],inactive: 0.93
6,SPAGRSIYNSFYVYC [PARK2_HUMAN_143],inactive: 2.66
7,DENGSKGYAFVHFET [PABP4_HUMAN_140],active: 6.33
8,DDQSEAVYEEMKAPI [NYAP2_HUMAN_268_YA],inactive: 0.956
9,KMQDIPIYANVHKTK [ARAP2_HUMAN_77],inactive: 1.39
10,KMLCEQYYLVAPELE [PDK3_HUMAN_212],inactive: 1.37
11,GAARAGVYNLTKSLA [PECR_HUMAN_179],inactive: 0.64
12,DQLNDNEYTKFIPPN [PDP1_HUMAN_381],inactive: 0.471
13,AKPDSPEYKAACKLW [PB1_HUMAN_134_YA],inactive: 1.1
14,KTSNSQKYMSFTDKS [PAK1_HUMAN_142],inactive: 1.2
15,VGEEEHVYSFPNKQK [PAXI_HUMAN_118],inactive: 0.797
16,TLTCMQHYEEVQTSA [PHAG1_HUMAN_105],inactive: 1.31
17,TSGQVEEYDLDADDI [AQP1_HUMAN_253],inactive: 1.58
18,VLQRTLHYECIVLVK [NUDT5_HUMAN_74],inactive: 2.25

# Molecular target: SHP2 N-SH2 domain L43F
# Experiment: as above
# Conditions: peptide library: Human pTyr
row,Binder,enrichment score
1,TMMSVDRYIAVCHPV [OPRK_HUMAN_157],inactive: 1.57
2,EEEISAMYSSVNKPG [PHAG1_HUMAN_317],inactive: 0.672
3,ARTTSQLYDAVPIQS [PDPK1_HUMAN_9],inactive: 0.735
4,KLLCDKAYMASPDLE [PDK2_HUMAN_216_YA],inactive: 0.944
5,SFENNGDYMDMKQAD [PGFRA_HUMAN_731],inactive: 0.947
6,SPAGRSIYNSFYVYC [PARK2_HUMAN_143],inactive: 2.74
7,DENGSKGYAFVHFET [PABP4_HUMAN_140],active: 6.15
8,DDQSEAVYEEMKAPI [NYAP2_HUMAN_268_YA],inactive: 0.924
9,KMQDIPIYANVHKTK [ARAP2_HUMAN_77],inactive: 1.6
10,KMLCEQYYLVAPELE [PDK3_HUMAN_212],inactive: 1.38
11,GAARAGVYNLTKSLA [PECR_HUMAN_179],inactive: 0.759
12,DQLNDNEYTKFIPPN [PDP1_HUMAN_381],inactive: 0.666
13,AKPDSPEYKAACKLW [PB1_HUMAN_134_YA],inactive: 1.25
14,KTSNSQKYMSFTDKS [PAK1_HUMAN_142],inactive: 1.18
15,VGEEEHVYSFPNKQK [PAXI_HUMAN_118],inactive: 0.801
16,TLTCMQHYEEVQTSA [PHAG1_HUMAN_105],inactive: 1.36
17,TSGQVEEYDLDADDI [AQP1_HUMAN_253],inactive: 1.15
18,VLQRTLHYECIVLVK [NUDT5_HUMAN_74],inactive: 1.95

# Molecular target: SHP2 N-SH2 domain T42A
# Experiment: as above
# Conditions: peptide library: Human pTyr
row,Binder,enrichment score
1,TMMSVDRYIAVCHPV [OPRK_HUMAN_157],inactive: 1.33
2,EEEISAMYSSVNKPG [PHAG1_HUMAN_317],inactive: 0.676
3,ARTTSQLYDAVPIQS [PDPK1_HUMAN_9],inactive: 1.25
4,KLLCDKAYMASPDLE [PDK2_HUMAN_216_YA],inactive: 0.832
5,SFENNGDYMDMKQAD [PGFRA_HUMAN_731],inactive: 0.843
6,SPAGRSIYNSFYVYC [PARK2_HUMAN_143],inactive: 2.65
7,DENGSKGYAFVHFET [PABP4_HUMAN_140],active: 5.62
8,DDQSEAVYEEMKAPI [NYAP2_HUMAN_268_YA],inactive: 1.53
9,KMQDIPIYANVHKTK [ARAP2_HUMAN_77],inactive: 1.06
10,KMLCEQYYLVAPELE [PDK3_HUMAN_212],inactive: 1.39
11,GAARAGVYNLTKSLA [PECR_HUMAN_179],inactive: 0.632
12,DQLNDNEYTKFIPPN [PDP1_HUMAN_381],inactive: 0.716
13,AKPDSPEYKAACKLW [PB1_HUMAN_134_YA],inactive: 1.1
14,KTSNSQKYMSFTDKS [PAK1_HUMAN_142],inactive: 1.14
15,VGEEEHVYSFPNKQK [PAXI_HUMAN_118],inactive: 0.796
16,TLTCMQHYEEVQTSA [PHAG1_HUMAN_105],inactive: 1.21
17,TSGQVEEYDLDADDI [AQP1_HUMAN_253],inactive: 1.12
18,VLQRTLHYECIVLVK [NUDT5_HUMAN_74],inactive: 2.36

# Molecular target: SHP2 N-SH2 domain T52S
# Experiment: as above
# Conditions: peptide library: Human pTyr
row,Binder,enrichment score
1,TMMSVDRYIAVCHPV [OPRK_HUMAN_157],inactive: 1.54
2,EEEISAMYSSVNKPG [PHAG1_HUMAN_317],inactive: 0.586
3,ARTTSQLYDAVPIQS [PDPK1_HUMAN_9],inactive: 0.858
4,KLLCDKAYMASPDLE [PDK2_HUMAN_216_YA],inactive: 0.997
5,SFENNGDYMDMKQAD [PGFRA_HUMAN_731],inactive: 0.811
6,SPAGRSIYNSFYVYC [PARK2_HUMAN_143],inactive: 2.71
7,DENGSKGYAFVHFET [PABP4_HUMAN_140],active: 4.01
8,DDQSEAVYEEMKAPI [NYAP2_HUMAN_268_YA],inactive: 1.17
9,KMQDIPIYANVHKTK [ARAP2_HUMAN_77],inactive: 1.55
10,KMLCEQYYLVAPELE [PDK3_HUMAN_212],inactive: 1.41
11,GAARAGVYNLTKSLA [PECR_HUMAN_179],inactive: 0.723
12,DQLNDNEYTKFIPPN [PDP1_HUMAN_381],inactive: 0.603
13,AKPDSPEYKAACKLW [PB1_HUMAN_134_YA],inactive: 1.31
14,KTSNSQKYMSFTDKS [PAK1_HUMAN_142],inactive: 1.58
15,VGEEEHVYSFPNKQK [PAXI_HUMAN_118],inactive: 1.01
16,TLTCMQHYEEVQTSA [PHAG1_HUMAN_105],inactive: 1.24
17,TSGQVEEYDLDADDI [AQP1_HUMAN_253],inactive: 1.36
18,VLQRTLHYECIVLVK [NUDT5_HUMAN_74],inactive: 2.5

# Molecular target: SHP2 N-SH2 domain wild-type
# Experiment: as above
# Conditions: peptide library: Human pTyr
row,Binder,enrichment score
1,TMMSVDRYIAVCHPV [OPRK_HUMAN_157],inactive: 1.7
2,EEEISAMYSSVNKPG [PHAG1_HUMAN_317],inactive: 0.78
3,ARTTSQLYDAVPIQS [PDPK1_HUMAN_9],inactive: 0.825
4,KLLCDKAYMASPDLE [PDK2_HUMAN_216_YA],inactive: 1.04
5,SFENNGDYMDMKQAD [PGFRA_HUMAN_731],inactive: 0.777
6,SPAGRSIYNSFYVYC [PARK2_HUMAN_143],active: 3.34
7,DENGSKGYAFVHFET [PABP4_HUMAN_140],inactive: 1.31
8,DDQSEAVYEEMKAPI [NYAP2_HUMAN_268_YA],inactive: 1.27
9,KMQDIPIYANVHKTK [ARAP2_HUMAN_77],inactive: 1.76
10,KMLCEQYYLVAPELE [PDK3_HUMAN_212],inactive: 1.72
11,GAARAGVYNLTKSLA [PECR_HUMAN_179],inactive: 0.755
12,DQLNDNEYTKFIPPN [PDP1_HUMAN_381],inactive: 0.777
13,AKPDSPEYKAACKLW [PB1_HUMAN_134_YA],inactive: 1.19
14,KTSNSQKYMSFTDKS [PAK1_HUMAN_142],inactive: 1.32
15,VGEEEHVYSFPNKQK [PAXI_HUMAN_118],inactive: 0.841
16,TLTCMQHYEEVQTSA [PHAG1_HUMAN_105],inactive: 1.94
17,TSGQVEEYDLDADDI [AQP1_HUMAN_253],inactive: 1.57
18,VLQRTLHYECIVLVK [NUDT5_HUMAN_74],inactive: 2.79
